From PubChem BioAssay AID686979 (National Center for Advancing Translational Sciences (NCATS), 2013)
Hit rate of the full screen: of about 420,000 compounds, about 50,000 (12%) were called active. Inconclusive means that the source gave no clear call. Such entries were picked first, then a sample of the others. Calls come from the whole dose curve; as a rule, active = well fitted inhibition curve with a large enough effect; inconclusive = small, poorly fitted or top-dose-only effect; inactive = flat fitted curve, though single readings scatter. Potencies of inconclusive entries are left out as doubtful fits.

Assay: qHTS for Inhibitors of human tyrosyl-DNA phosphodiesterase 1 (TDP1): qHTS in cells in presence of CPT; note: nearly all actives have a fitted effect of over 55% in size
Conditions: chicken DT40 Tdp1-/-;hTDP1 cells + 20 nM CPT, ATP luminescence, 48 h; activity change, negative = growth inhibition: at 46.2 µM (top of the series) unless noted
How it was run: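 Chicken DT40 Tdp1-/- cells complemented with human TDP1, 400 cells/well, exposed to compounds plus 20 nM camptothecin for at least 48 h at 37 C; viability read as ATP content by CellTiter-Glo luminescence.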
% is set by controls: 0 for no effect and ±100 for the full control effect; potency is the fitted concentration of half-maximal effect; tags give direction and shape of the fitted curve.

Row | Compound | Potency | activity change, negative = growth inhibition
1 | O=C(NCc1ccccc1Cl)c1cc2c(s1)-c1ccc(Cl)cc1SC2 | inconclusive [inhibitor, single point] | 
2 | Cc1c(NC(=O)c2ccc(C(=O)Nc3c(C)n(C)n(-c4ccccc4)c3=O)cc2)c(=O)n(-c2ccccc2)n1C | inconclusive [inhibitor, full curve, poor fit] | 
3 | CC(C)(C)OC(=O)N[C@@H](Cc1ccccc1)C(=O)NCC1CCC(C(=O)N[C@@H](CCC(N)=O)C(=O)O)CC1 (stereo partly drawn) |  | inconclusive: -19.1% [inhibitor]
4 | CCCCCCn1c(NCC)nc2c1c(=O)n(C)c(=O)n2C | active: 6.51 µM | 
5 | CCN1CCN(CC#CCOc2ccccc2OC)CC1 |  | inactive: 1.31%
6 | O=C(CN1CCN(c2ccc(O)cc2)CC1)Nc1ccc2c(c1)OCCCO2 | inconclusive [inhibitor, partial curve] | 
7 | COc1ccccc1N(CC(=O)NCc1ccccc1C)S(=O)(=O)c1ccc(C)cc1 | inconclusive [inhibitor, single point] | 
8 | COc1ccc(S(=O)(=O)Nc2ccc(NC(C)=O)cc2)cc1Cl |  | inactive: 7.45%
9 | Cc1cccc(S(=O)(=O)NC(=O)C2(C)CCN2C(=O)Cc2cccs2)c1 (stereo not drawn) |  | inactive: -3.01%
10 | COc1cc2ccccc2cc1C(=O)Nc1ccccc1N1CCCC1 | inconclusive [inhibitor, single point] | 
11 | CCOc1ccc(N2CC(C(=O)NCc3ccco3)CC2=O)cc1 (stereo not drawn) |  | inactive: 9.52%
12 | c1ccc(CN2CCC(CNc3ncnc4ccccc34)C2)cc1 (stereo not drawn) | active: 20.6 µM | 
13 | COc1ccc(CCNC(=O)C(=O)NCC2OCCN2S(=O)(=O)c2cc(F)ccc2F)cc1OC (stereo not drawn) | inconclusive [inhibitor, single point] | 
14 | N#CCCCC#Cc1ccc2c(c1)COc1c3ccccc3nn1-2 | inconclusive [inhibitor, single point] | 
15 | CSc1ccccc1NC(=O)c1ccc(CN2CCOCC2)cc1 |  | inactive: -13.8%
16 | CSc1ccc(S(=O)(=O)N(C)Cc2ccccc2)cc1 |  | inactive: 1.26%
17 | CN(C)CCNC(=O)c1ccc(Cl)c2cc3ccccc3nc12 | active: 0.164 µM | 
18 | COc1cc2ccccc2cc1C(=O)Nc1ccc(N2CCN(C(=O)C(C)C)CC2)cc1 | active: 16.4 µM | 
19 | CCC(C)NC(=O)C1CCC(CNS(=O)(=O)c2ccc3c(c2)N(C(C)=O)CCO3)CC1 (stereo not drawn) | inconclusive [inhibitor, single point] | 
20 | O=C(O)c1ccccc1C(=O)NCc1ccccc1 |  | inactive: 2.37%
21 | COc1ccc2c(c1)OC[C@H]1[C@H]2N2C(=O)CN(Cc3ccc(F)cc3)C(=O)[C@@]2(C)[C@H]1c1ccccc1 | inconclusive [inhibitor, single point] | 
22 | COc1ccc(CCC(=O)OCC(=O)Nc2sccc2C(N)=O)cc1OC | inconclusive [inhibitor, single point] | 
23 | CCc1cccc(C)c1NC(=O)C1CN(S(=O)(=O)c2ccccc2)CCN1S(=O)(=O)c1ccccc1 (stereo not drawn) | inconclusive [inhibitor, single point] | 
24 | CC(=O)Nc1ccc(Oc2cncc(Cl)c2)nc1 |  | inconclusive: -35% [inhibitor]
25 | O=C(CSc1nnc(NC2CCCCC2)s1)N1CCOCC1 |  | inactive: 0.72%

Row | Compound | Potency | activity change, negative = growth inhibition
26 | COc1ccc(NC(=O)N(Cc2cc3cc(OC)c(OC)cc3[nH]c2=O)CC2CCCO2)cc1 (stereo not drawn) | inconclusive [inhibitor, single point] | 
27 | Cc1cc(NC(=O)CSc2nc(-c3ccco3)cc(C(F)(F)F)n2)n(-c2ccccc2)n1 | active: 4.11 µM | 
28 | CC1C(=O)N2CCCc3cc(NC(=O)c4ccccc4Br)cc1c32 (stereo not drawn) |  | inactive: -2.74%
29 | N#Cc1cccc(C(=O)N(CCc2ccccc2)Cc2cccs2)c1 | inconclusive [inhibitor, single point] | 
30 | CN(C)C1=NCC(CSC(=N)N)S1 (stereo not drawn) | inconclusive [inhibitor, single point] | 
31 | COc1ccc(CN(C)C(=O)[C@H](Cc2ccccc2)NC(=O)c2ccco2)c(OC)c1 | inconclusive [inhibitor, single point] | 
32 | Cc1cc2oc(=O)cc(CN(C)Cc3ccccc3)c2cc1C(C)C | inconclusive [inhibitor, single point] | 
33 | CCCCCCOc1ccc(C(=N)N(CCCC)CCCC)c2ccccc12 | active: 4.22 µM | 
34 | Cc1c(C(=O)NCc2cccc(Cl)c2)sc2ncnc(N(C)C3CCCCC3)c12 | active: 20.6 µM | 
35 | COc1ccc(-c2cc(C(F)(F)F)c3c(=O)n(-c4ccccc4)[nH]c3n2)cc1 | inconclusive [inhibitor, single point] | 
36 | CCCCCCCNC(=O)C1(CC2CC(c3cccc(Br)c3)=NO2)CCN(C(=O)C2(C)CC2)CC1 (stereo not drawn) | active: 16.4 µM | 
37 | CCn1c(CCc2ccccc2)n[nH]c1=S |  | inactive: -6.88%
38 | Cc1ccc(OCC(=O)Nc2ccc(F)cc2)cc1 |  | inactive: -17.9%
39 | C=C(C(=O)c1ccccc1)C(c1ccccc1)C(C)C(=O)c1ccccc1 (stereo not drawn) | inconclusive [inhibitor, single point] | 
40 | COc1ccccc1CNC(=O)c1ccc(CS(=O)(=O)c2ccc(C)cc2)o1 | inconclusive [inhibitor, single point] | 
41 | O=C(N/N=C/c1cn(-c2cccs2)nc1-c1ccccc1)c1ccccc1O | active: 13 µM | 
42 | COc1ccc([N+](=O)[O-])cc1N(CC(=O)N1CCN(Cc2ccccc2)CC1)S(C)(=O)=O | inconclusive [inhibitor, single point] | 
43 | O=C(Cn1c(=O)nc(-c2ccccc2)c2ccccc21)Nc1cccc(C(F)(F)F)c1 |  | inactive: -0.525%
44 | CC(C)(C)c1ccc(OCc2ccc(C(=O)NN)o2)cc1 | inconclusive [inhibitor, single point] | 
45 | Cc1ccccc1S(=O)(=O)Nc1ncnc2ccccc12 |  | inactive: 1.06%
46 | CCOC(=O)CCCSc1nc2sc(C)c(C)c2c(=O)[nH]1 | inconclusive [inhibitor, partial curve, poor fit] | 
47 | CCCNC(=O)C1CC(=O)N(c2ccc(OCc3ccc(Cl)cc3)cc2)C1 (stereo not drawn) | inconclusive [inhibitor, partial curve, poor fit] | 
48 | O=C1NC(=S)S/C1=C/c1ccc(OC(=O)c2ccco2)cc1 | inconclusive [inhibitor, partial curve] | 
49 | CC(=O)Nc1ccc(OCC(O)CN2CCN(c3ccccc3Cl)CC2)cc1 (stereo not drawn) |  | inactive: -10.6%
50 | COc1ccc(O)c(C(=O)CC(=O)c2ccccc2C)c1 | active: 7.31 µM | 

Row | Compound | Potency | activity change, negative = growth inhibition
51 | Cc1ccc2c(CN3CCN(S(=O)(=O)c4ccccc4C(F)(F)F)CC3)cc(=O)oc2c1C | inconclusive [inhibitor, partial curve, poor fit] | 
52 | C=CCNC(=S)Nc1ccc2nsnc2c1 |  | inactive: 1.41%
53 | O=C(NCCCCNC(=O)c1ccc(F)cc1)c1ccc(F)cc1 |  | inactive: -17.1%
54 | COc1ccc(-c2cn(-c3ccc(C)cc3)c(S(=O)(=O)CC(=O)Nc3ccc(F)cc3)n2)cc1 | active: 16.4 µM | 
55 | CCOc1ccc(CCNC(=O)c2cc3c(=O)oc4ccc(C)cc4c3s2)cc1OCC | active: 13 µM | 
56 | COc1ccccc1Cc1c(-c2ccc(Cl)cc2)nc2ccc(Cl)cn12 | inconclusive [inhibitor, single point] | 
57 | S=C1NC2=C(CCC/C2=C\c2ccccc2)C(c2ccccc2)N1 (stereo not drawn) | inconclusive [inhibitor, single point] | 
58 | O=C(O)CSc1nnc(-c2ccccc2O)n1Cc1ccccc1 |  | inactive: 3.11%
59 | Cc1nn(Cc2ccc(Cl)c(Cl)c2)c(C)c1NC(=O)c1noc2c1CCCCC2 | active: 11.6 µM | 
60 | COc1ccccc1NS(=O)(=O)c1ccc(C(=O)N2CC(C)OC(C)C2)cc1 (stereo not drawn) | inconclusive [inhibitor, single point] | 
61 | Cc1ccc(NC(=O)CN(C)C(=O)C2CCC2)cc1 |  | inactive: 4.91%
62 | O=C(Nc1ccc(Cl)c(Cl)c1)N1CCSC1c1ccco1 (stereo not drawn) | inconclusive [inhibitor, single point] | 
63 | CCCCCCn1c(SCC(=O)c2c(N)n(C)c(=O)n(C)c2=O)nc2ccccc21 | inconclusive [inhibitor, partial curve] | 
64 | CCOC(=O)c1ccc(N2C(=O)C=CC2=O)cc1 | active: 0.82 µM | 
65 | CS(=O)(=O)N(CC(O)Cn1c2ccccc2c2ccccc21)c1ccccc1 (stereo not drawn) | inconclusive [inhibitor, single point] | 
66 | CCN(Cc1ccccc1)S(=O)(=O)c1ccc(C(=O)N(CCCN(C)C)c2nc3c(C)c(C)ccc3s2)cc1 | inconclusive [inhibitor, single point] | 
67 | Cc1nn(CCC(=O)Nc2cc(F)ccc2F)c(=O)c2nn(-c3ccccc3)c(C)c12 | inconclusive [inhibitor, single point] | 
68 | CCOc1ccccc1OCCOCCOc1ccccc1[N+](=O)[O-] |  | inactive: -26.7%
69 | Cc1ccccc1CN1C2=NCCCN2c2ccccc21 | active: 18.4 µM | 
70 | Cc1ccc(C)c(OCCNc2ccc([N+](=O)[O-])cn2)c1 | inconclusive [inhibitor, single point] | 
71 | O=C(NN=Cc1cccc([N+](=O)[O-])c1)c1cc(-c2cccnc2)nc2ccccc12 | inconclusive [inhibitor, single point] | 
72 | COc1ccc(CNC(=O)CN(Cc2ccc(C)cc2)S(=O)(=O)c2ccc(Cl)cc2)cc1 | inconclusive [inhibitor, single point] | 
73 | O=C(CN1CCC2(CC1)OCCO2)c1ccc2cc[nH]c2c1 |  | inconclusive: -34.5% [inhibitor]
